The campaign covered roughly 150,000 compounds. About 540 (0.36%) showed an effect of 50% or more. Some of the results follow.

The experiment concerns Plasmodium falciparum. Briefly: Primary screen in NF54 nanoGlo assay, in single point, at 2uM, 72h; a lower Z score goes with more inhibition. It is filed as functional, Erythrocyte. The note with it: timepoint 72 hour.
For the compound `CCN(CC)S(=O)(=O)c1cc(C(=O)NCc2ccncc2)n(C)c1`, the “% Inhibition” value is -8% and the Z score was 1.06.
Regarding `Cc1ncc(CNc2ccc(Oc3nc(C(C)(C)C)ns3)c(Cl)c2)o1`, the “% Inhibition” value is reported as -11% and the Z score turned out to be 1.8.
Turning to `COCCc1noc(-c2cnc(OC)nc2C)n1`, the “% Inhibition” value is recorded as -4% and the Z score is reported as 0.46.
As for `COc1ccc(Cl)cc1-n1cnc2cc(C(=O)N3CCCCC3)ccc2c1=O`, the “% Inhibition” value is -16% and the Z score stood at 2.85.
Regarding `CC(C)(C)OC(=O)NCc1ccccc1N`, the “% Inhibition” value is on record as 0% and the Z score amounted to 0.04.
Regarding `Cc1nonc1CC(=O)N1CCC(c2nnc(Cn3cccn3)n2C)CC1`, the “% Inhibition” value was -7% and the Z score is reported as 1.48.
For the compound `CCCn1cc(CN2CCS(=O)(=O)CC2)c(C)n1`, the “% Inhibition” value is on record as -4% and the Z score is 0.75.
With `C[C@@H](CCc1ccc(Br)cc1)NC(=O)CCn1cncn1`, the “% Inhibition” value is -6% and the Z score is 0.88.
Regarding `Cc1nc(Cn2cccc2C(=O)Nc2ccc(Cl)cc2F)no1`, the “% Inhibition” value is listed as -17% and the Z score is 2.52.
Turning to `CC(C)C(=O)N(Cc1ccc(F)cc1)Cc1ccc(OS(=O)(=O)c2cccc(C(F)(F)F)c2)cc1`, the “% Inhibition” value is listed as -11% and the Z score worked out at 0.97.
For `COC1([C@H](C)NC(=O)Cc2cccc(OC(C)C)c2)CCOCC1` the same measures were 0% and -0.05.
As for `O=C(Nc1cccnc1O)c1nc(C2CC2)n(-c2ccccc2)n1`, the “% Inhibition” value was found to be 33% and the Z score is on record as -3.76.
As to `O=C(NCC1(O)CCOCC1)C(=O)Nc1ccccc1C(F)(F)F`, the “% Inhibition” value is listed as 3% and the Z score is -0.36.
Take `CCCc1nnc(N2CC[C@@]3(CCCN(C4CCCCC4)C3=O)C2)s1`: the “% Inhibition” value is given as -6% and the Z score is listed as 0.87.
`Cc1cc(C)n(-c2ccc(=O)n(CC3CN(c4cc(=O)n5ccccc5n4)C3)n2)n1`: the “% Inhibition” value is -20% and the Z score was determined as 2.98.
As for `C=CCNC(=O)NCCOc1ccc(S(C)(=O)=O)cc1`, the “% Inhibition” value is -19% and the Z score is 1.72.
For `COc1ccc(C(=O)NCc2cccnc2-n2ccnc2)cc1`, the “% Inhibition” value is recorded as 6% and the Z score was -0.7.
On to `O=C(c1ccc(Cl)cc1)N1CCCN(c2cc(Oc3ccc(F)c(Cl)c3)ncn2)CC1`, for which the “% Inhibition” value is -13% and the Z score stood at 1.25.
With `Cc1noc(C)c1CN1CC[C@H](NC(=O)c2cccc(Cl)c2)[C@@H](O)C1`, the “% Inhibition” value is recorded as -6% and the Z score amounted to 1.12.
On to `O=C1C2CC=CCC2C(=O)N1Cc1coc(-c2ccc(F)cc2)n1` (stereo not drawn), for which the “% Inhibition” value is given as -11% and the Z score is on record as 1.52.
For `Cc1cccc(CN2CCC(N3CCC[C@H](C(=O)N4CCCC4)C3)CC2)c1` the same measures were 6% and -1.14.
Take `Cc1ccc(CC(=O)NCCc2nc3cccnc3n2C)cc1`: the “% Inhibition” value was 10% and the Z score is recorded as -1.15.
On to `COc1ccc(S(=O)(=O)Oc2cc(CN(CC3CC3)C(=O)Nc3ccccc3OC)ccc2OC)cc1`, for which the “% Inhibition” value is -1% and the Z score is 0.14.
Consider `O=C1CC[C@@]2(CCCO2)CCN1Cc1cscn1`, for which the “% Inhibition” value was -1% and the Z score came out at 0.19.
Regarding `CC(C)(CC1CCOCC1)C(=O)N1CCCCC1`, the “% Inhibition” value is on record as -12% and the Z score is 1.57.
As to `Cc1nc(NC(C2CCC2)C2CCC2)nc(N(C)C)n1`, the “% Inhibition” value is on record as -3% and the Z score was found to be 0.49.
Regarding `O=C(NCc1ccc[nH]1)C1CCCCC1`, the “% Inhibition” value is 10% and the Z score is on record as -1.3.
`O=C(NCc1ccccc1)c1c(OCC2CC2)cc(=O)n2c1CCOCC2`: the “% Inhibition” value is given as -2% and the Z score was 0.27.
Take `O=C(CNC(=O)c1ccc(N2CCCC2)c(F)c1)NC1CCCCC1`: the “% Inhibition” value is -2% and the Z score is 0.31.
For `Cc1cc(C)cc(N2CCC(N3CCN4CCNC(=O)[C@@H]4C3)CC2)c1` the same measures were 0% and -0.02.
As to `Cc1cccc(N2CCN(C(=O)c3cn4c(n3)COCC4)CC2)c1C`, the “% Inhibition” value is given as -8% and the Z score was 1.36.
On to `CS(=O)(=O)c1ccc(C(=O)Nc2ccccc2C(=O)Nc2ccc3c(c2)OCCO3)cc1`, for which the “% Inhibition” value is -1% and the Z score was 0.26.
With `N#Cc1ncn(CC(=O)NCCc2cccc(Cl)c2Cl)c1C#N`, the “% Inhibition” value is on record as -12% and the Z score was 2.12.
For `O=C(c1ccn2nnnc2c1)N1C[C@@H]2CC[C@H]1CN(c1ncccn1)C2` the same measures were -14% and 1.36.
For `COc1cc(-n2cnnn2)ccc1NC(=O)c1cnc2ccccc2n1` the same measures were 10% and -1.31.
As to `CC1CN(Cc2ccccc2)CC2(CCN(C(=O)C(C)O)CC2)O1` (stereo not drawn), the “% Inhibition” value is -6% and the Z score was found to be 1.02.
Turning to `OC1(Cn2cc(-c3ccncc3)cn2)CCC1`, the “% Inhibition” value is listed as 1% and the Z score is on record as -0.12.
As for `CC(=O)c1ccc(=O)n(CC[C@H]2CCCO2)n1`, the “% Inhibition” value is listed as -5% and the Z score was 0.85.
For `c1ccc(N2CCN(Cc3nc(-c4cccs4)no3)CC2)cc1`, the “% Inhibition” value was 11% and the Z score is recorded as -1.88.
For `CN(C)[C@H]1CCN(C(=O)c2ccc(Cl)cc2O)C[C@H]1CCC(=O)O`, the “% Inhibition” value is listed as -4% and the Z score is 0.4.
For `Cc1csc(Nc2ccc(NC(=O)Cn3cncn3)cc2)n1` the same measures were -8% and 1.68.
As to `CC(CNC(=O)C1CCCN(S(=O)(=O)c2cccs2)C1)c1ccccc1` (stereo not drawn), the “% Inhibition” value was 6% and the Z score is reported as -0.84.
For `O=C(NC[C@H]1CCCC1(F)F)c1ccc2[nH]c(=O)[nH]c2c1` the same measures were -15% and 1.72.
For `Cc1ncsc1CNC1CCN(C(=O)C(C)C)CC1C` (stereo not drawn), the “% Inhibition” value is on record as -13% and the Z score is recorded as 1.17.
For `Cc1nnsc1C(=O)N(Cc1nn(C)c2c1CCC2)C1CCCC1` the same measures were -8% and 1.59.
In the case of `C[C@@H](CCc1ccccc1)NC(=O)c1cc2n(n1)CCN(Cc1c(Cl)cccc1Cl)C2=O`, the “% Inhibition” value is on record as -4% and the Z score is listed as 0.58.
`CN(C)[C@H]1[C@H](NC(=O)c2ccc(Oc3ccccc3)o2)[C@@H]2CCO[C@@H]21`: the “% Inhibition” value is given as -17% and the Z score is reported as 1.68.
`COCC(=O)Nc1ccc(NC(=O)c2ccccc2-c2nccn2C)cc1Cl`: the “% Inhibition” value was -10% and the Z score is given as 1.89.
For `C[C@@H](c1cncs1)N(C)C(=O)c1cc2c(s1)CCCC2` the same measures were -5% and 0.71.
Regarding `CCN(Cc1ccccc1)C(=O)c1sc(-c2nnn(-c3ccc(C)c(C)c3)c2C)nc1C`, the “% Inhibition” value is on record as -9% and the Z score was 0.82.
Regarding `O=C(C1CCCC1)N1CCC[C@H](S(=O)(=O)N2CCCC2)C1`, the “% Inhibition” value turned out to be 7% and the Z score is -0.99.
For `CN(Cc1ccon1)C(=O)[C@@]1(C)CCCN(C(=O)c2ccccc2)C1` the same measures were -11% and 1.85.
Regarding `C[C@H]1CCn2c(nc3cc(C(=O)NC4CCCCC4)ccc32)C1`, the “% Inhibition” value was -10% and the Z score came out at 1.38.
For `COc1ccccc1C(=O)NCc1ccc2c(c1)CCN2C(=O)c1ccncc1` the same measures were -8% and 0.73.
